# This is one part of the list.
# B1: Cohesin-hDECTIN-1 (Homo sapiens) (protein)
# chain: LDITSHHHHHHDDLDAVRIKVDTVNAKPGDTVRIPVRFSGIPSKGIANCDFVYSYDPNVLEIIEIEPGDIIVDPNPDKSFDTAVYPDRKIIVFLFAEDSGTGAYAITKDGVFATIVAKVKEGAPNGLSVIKFVEVGGFANNDLVEQKTQFFDGGVNVGDTTEPATPTTPVTTPTTTDDLDAASSSPCPPNWIIYEKSCYLFSMSLNSWDGSKRQCWQLGSNLLKIDSSNELGFIVKQVSSQPDNSFWIGLSRPQTEVPWLWEDGSTFSSNLFQIRTTATQENPSPNCVWIHVSVIYDQLCSVPSYSICEKKFM
# Columns and labels:
# Test in all cases: glycan array binding signal (z-score within array); higher = stronger binding
# Settings in all cases: glycan notation: IUPAC condensed, linker removed
# [1] = target: Fuc(a1-2)Gal(b1-4)GlcNAc(b1-3)Gal(b1-4)GlcNAc(b1-3)Gal(b1-4)GlcNAc
# Summary of the method: (§1)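 From the Consortium for Functional Glycomics database, 3228 arrays were curated, keeping only those whose protein sequence was available. Binding is given as a within-array Z-score averaged across arrays sharing a protein sequence and across linkers. Negative Z-scores can be read as non-binding.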
# [2] = target: Fuc(a1-2)Gal(b1-4)GlcNAc(b1-3)GalNAc
# Summary of the method: as §1
# [3] = target: Fuc(a1-2)Gal(b1-4)GlcNAc(b1-3)[Fuc(a1-2)Gal(b1-4)GlcNAc(b1-6)]GalNAc
# Summary of the method: as §1
# [4] = target: Fuc(a1-2)Gal(b1-4)GlcNAc(b1-3)[Fuc(a1-3)[Gal(b1-4)]GlcNAc(b1-6)]Gal(b1-4)Glc
# Summary of the method: as §1
# [5] = target: Fuc(a1-2)Gal(b1-4)GlcNAc(b1-6)GalNAc
# Summary of the method: as §1
# [6] = target: Fuc(a1-2)Gal(b1-4)GlcNAc6S
# Summary of the method: as §1
# [7] = target: Fuc(a1-2)Gal(b1-4)[Fuc(a1-3)]GlcNAc
# Summary of the method: as §1
# [8] = target: Fuc(a1-2)Gal(b1-4)[Fuc(a1-3)]GlcNAc(b1-2)Man(a1-3)[Fuc(a1-2)Gal(b1-4)[Fuc(a1-3)]GlcNAc(b1-2)Man(a1-6)]Man(b1-4)GlcNAc(b1-4)[Fuc(a1-6)]GlcNAc
# Summary of the method: as §1
# [9] = target: Fuc(a1-2)Gal(b1-4)[Fuc(a1-3)]GlcNAc(b1-2)[Fuc(a1-2)Gal(b1-4)[Fuc(a1-3)]GlcNAc(b1-4)]Man(a1-3)[Fuc(a1-2)Gal(b1-4)[Fuc(a1-3)]GlcNAc(b1-2)Man(a1-6)]Man(b1-4)GlcNAc(b1-4)GlcNAc
# Summary of the method: as §1
# [10] = target: Fuc(a1-2)Gal(b1-4)[Fuc(a1-3)]GlcNAc(b1-3)Gal(b1-4)[Fuc(a1-3)]GlcNAc
# Summary of the method: as §1
# [11] = target: Fuc(a1-2)Gal(b1-4)[Fuc(a1-3)]GlcNAc(b1-3)Gal(b1-4)[Fuc(a1-3)]GlcNAc(b1-3)Gal(b1-4)[Fuc(a1-3)]GlcNAc
# Summary of the method: as §1
# [12] = target: Fuc(a1-2)Gal(b1-4)[Fuc(a1-3)]GlcNAc(b1-3)GalNAc
# Summary of the method: as §1
# [13] = target: Fuc(a1-2)Gal(b1-4)[Fuc(a1-3)]GlcNAc(b1-3)[Neu5Ac(a2-6)Gal(b1-4)GlcNAc(b1-6)]Gal(b1-4)Glc
# Summary of the method: as §1
# [14] = target: Fuc(a1-2)Gal3S(b1-4)GlcNAc
# Summary of the method: as §1
# [15] = target: Fuc(a1-2)Gal6S(b1-3)GlcNAc
# Summary of the method: as §1
# [16] = target: Fuc(a1-2)Gal6S(b1-3)GlcNAc6S
# Summary of the method: as §1
# Fuc(a1-2)Gal6S(b1-4)Glc = target: Fuc(a1-2)Gal6S(b1-4)Glc
# Summary of the method: as §1
# [17] = target: Fuc(a1-2)Gal6S(b1-4)Glc6S
# Summary of the method: as §1
# Fuc(a1-2)[Gal(a1-3)]Gal = target: Fuc(a1-2)[Gal(a1-3)]Gal
# Summary of the method: as §1
# [18] = target: Fuc(a1-2)[Gal(a1-3)]Gal(b1-3)GalNAc
# Summary of the method: as §1
# [19] = target: Fuc(a1-2)[Gal(a1-3)]Gal(b1-3)GalNAc(b1-3)Gal(a1-4)Gal(b1-4)Glc
# Summary of the method: as §1
# [20] = target: Fuc(a1-2)[Gal(a1-3)]Gal(b1-3)GlcNAc
# Summary of the method: as §1
# [21] = target: Fuc(a1-2)[Gal(a1-3)]Gal(b1-3)GlcNAc(b1-2)Man(a1-3)[Fuc(a1-2)[Gal(a1-3)]Gal(b1-3)GlcNAc(b1-2)Man(a1-6)]Man(b1-4)GlcNAc(b1-4)GlcNAc
# Summary of the method: as §1
# [22] = target: Fuc(a1-2)[Gal(a1-3)]Gal(b1-3)GlcNAc(b1-2)Man(a1-3)[Fuc(a1-2)[Gal(a1-3)]Gal(b1-3)GlcNAc(b1-2)Man(a1-6)]Man(b1-4)GlcNAc(b1-4)[Fuc(a1-6)]GlcNAc
# Summary of the method: as §1
# [23] = target: Fuc(a1-2)[Gal(a1-3)]Gal(b1-3)GlcNAc(b1-3)GalNAc
# Summary of the method: as §1
# [24] = target: Fuc(a1-2)[Gal(a1-3)]Gal(b1-3)GlcNAc(b1-6)GalNAc
# Summary of the method: as §1
# [25] = target: Fuc(a1-2)[Gal(a1-3)]Gal(b1-4)Glc
# Summary of the method: as §1
# [26] = target: Fuc(a1-2)[Gal(a1-3)]Gal(b1-4)GlcNAc
# Summary of the method: as §1
# [27] = target: Fuc(a1-2)[Gal(a1-3)]Gal(b1-4)GlcNAc(b1-2)Man
# Summary of the method: as §1
# [28] = target: Fuc(a1-2)[Gal(a1-3)]Gal(b1-4)GlcNAc(b1-2)Man(a1-3)[Fuc(a1-2)[Gal(a1-3)]Gal(b1-4)GlcNAc(b1-2)Man(a1-6)]Man(b1-4)GlcNAc(b1-4)GlcNAc
# Summary of the method: as §1
# [29] = target: Fuc(a1-2)[Gal(a1-3)]Gal(b1-4)GlcNAc(b1-2)Man(a1-3)[Fuc(a1-2)[Gal(a1-3)]Gal(b1-4)GlcNAc(b1-2)Man(a1-6)]Man(b1-4)GlcNAc(b1-4)[Fuc(a1-6)]GlcNAc
# Summary of the method: as §1
# [30] = target: Fuc(a1-2)[Gal(a1-3)]Gal(b1-4)GlcNAc(b1-3)GalNAc
# Summary of the method: as §1
# [31] = target: Fuc(a1-2)[Gal(a1-3)]Gal(b1-4)GlcNAc(b1-3)[Fuc(a1-2)[Gal(a1-3)]Gal(b1-4)GlcNAc(b1-6)]GalNAc
# Summary of the method: as §1
# [32] = target: Fuc(a1-2)[Gal(a1-3)]Gal(b1-4)GlcNAc(b1-6)GalNAc
# Summary of the method: as §1
# [33] = target: Fuc(a1-2)[Gal(a1-3)]Gal(b1-4)[Fuc(a1-3)]Glc
# Summary of the method: as §1
# [34] = target: Fuc(a1-2)[Gal(a1-3)]Gal(b1-4)[Fuc(a1-3)]GlcNAc
# Summary of the method: as §1
# [35] = target: Fuc(a1-2)[Gal(a1-3)]Gal(b1-4)[Fuc(a1-3)]GlcNAc(b1-3)GalNAc
# Summary of the method: as §1
binder,measurement,setting,value
B1,glycan array binding signal (z-score),[1],-0.532
same,glycan array binding signal (z-score),[2],-0.382
same,glycan array binding signal (z-score),[3],-0.121
same,glycan array binding signal (z-score),[4],-0.613
same,glycan array binding signal (z-score),[5],2.93
same,glycan array binding signal (z-score),[6],-0.366
same,glycan array binding signal (z-score),[7],-0.379
same,glycan array binding signal (z-score),[8],-0.299
same,glycan array binding signal (z-score),[9],-0.326
same,glycan array binding signal (z-score),[10],-0.617
same,glycan array binding signal (z-score),[11],-0.245
same,glycan array binding signal (z-score),[12],0.243
same,glycan array binding signal (z-score),[13],-0.493
same,glycan array binding signal (z-score),[14],-0.428
same,glycan array binding signal (z-score),[15],-0.395
same,glycan array binding signal (z-score),[16],0.18
same,glycan array binding signal (z-score),Fuc(a1-2)Gal6S(b1-4)Glc,-0.465
same,glycan array binding signal (z-score),[17],-0.104
same,glycan array binding signal (z-score),Fuc(a1-2)[Gal(a1-3)]Gal,-0.077
same,glycan array binding signal (z-score),[18],-0.429
same,glycan array binding signal (z-score),[19],-0.562
same,glycan array binding signal (z-score),[20],0.846
same,glycan array binding signal (z-score),[21],-0.472
same,glycan array binding signal (z-score),[22],-0.237
same,glycan array binding signal (z-score),[23],-0.298
same,glycan array binding signal (z-score),[24],1.59
same,glycan array binding signal (z-score),[25],-0.115
same,glycan array binding signal (z-score),[26],-0.206
same,glycan array binding signal (z-score),[27],-0.222
same,glycan array binding signal (z-score),[28],-0.48
same,glycan array binding signal (z-score),[29],-0.435
same,glycan array binding signal (z-score),[30],-0.311
same,glycan array binding signal (z-score),[31],-0.381
same,glycan array binding signal (z-score),[32],-0.101
same,glycan array binding signal (z-score),[33],-0.409
same,glycan array binding signal (z-score),[34],-0.101
same,glycan array binding signal (z-score),[35],-0.523

# Source: the supplement of paper PMC8728848
